# Some of the results follow. These are noisy estimates, calculated here from bound and input reads.
# Target: T1, Pho4 (S. cerevisiae) (UniProt P07270)
# T1 sequence: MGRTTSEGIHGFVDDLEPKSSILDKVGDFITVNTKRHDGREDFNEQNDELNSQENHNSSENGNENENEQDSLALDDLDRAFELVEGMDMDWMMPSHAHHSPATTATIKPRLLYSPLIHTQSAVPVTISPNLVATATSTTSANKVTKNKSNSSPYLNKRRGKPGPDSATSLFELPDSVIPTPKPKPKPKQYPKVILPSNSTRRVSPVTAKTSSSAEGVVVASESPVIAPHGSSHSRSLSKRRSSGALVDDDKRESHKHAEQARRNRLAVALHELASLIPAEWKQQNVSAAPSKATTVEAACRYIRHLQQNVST
# Experiment: relative binding free energy (BET-seq); higher = weaker binding
# Conditions: reference: library average
row,Sequence,relative binding free energy
1,TATTACACGTGTGAAG,0.13 kcal/mol
2,ATTGCCACGTGTATTG,-0.07 kcal/mol
3,ATGATCACGTGTAAAT,0.24 kcal/mol
4,TAGTACACGTGGGGAT,-0.02 kcal/mol
5,AACGTCACGTGCGTGG,0.04 kcal/mol
6,CTTTTCACGTGAGTAT,0.47 kcal/mol
7,GGGTTCACGTGTAAGA,0.39 kcal/mol
8,GTGGGCACGTGGTTAC,-0.01 kcal/mol
9,AAGGCCACGTGGTGAT,0.07 kcal/mol
10,ATTGGCACGTGCGCTT,-0.21 kcal/mol
11,TAAGGCACGTGAGAGG,0.06 kcal/mol
12,TGCTGCACGTGTTAGT,-0.12 kcal/mol
13,CTAGGCACGTGAGTAA,0.2 kcal/mol
14,AGGTACACGTGAATAG,0.31 kcal/mol
15,TTATGCACGTGCATAA,-0.02 kcal/mol
16,GTGGTCACGTGCGTAA,-0.02 kcal/mol
17,TATGACACGTGCAGTT,0.03 kcal/mol
18,CGTGTCACGTGTAACG,0.27 kcal/mol
19,GGTACCACGTGTTGAT,-0.08 kcal/mol
20,ATAGGCACGTGAGTTG,0.09 kcal/mol
21,ATTTGCACGTGGAATA,-0.05 kcal/mol
22,TGGGTCACGTGATTAT,0.28 kcal/mol
23,TTCGTCACGTGGCAGG,-0.08 kcal/mol
24,TGGTCCACGTGTAGAT,0.35 kcal/mol
25,CGTTACACGTGTTGGG,0.1 kcal/mol

row,Sequence,relative binding free energy
1,AATGTCACGTGATTTA,0.24 kcal/mol
2,TAACGCACGTGTTGTT,-0.18 kcal/mol
3,CGTTGCACGTGATGTG,0.05 kcal/mol
4,TCGTACACGTGTGGCG,0.12 kcal/mol
5,TTTGGCACGTGATGAG,0 kcal/mol
6,ATGTCCACGTGTGTGT,0.06 kcal/mol
7,GGGTCCACGTGATGAG,0.12 kcal/mol
8,GATAGCACGTGCAGTT,0.05 kcal/mol
9,ACAGGCACGTGGTGTT,-0.21 kcal/mol
10,ATGGTCACGTGCTGGC,0.22 kcal/mol
11,TTTCACACGTGCTGTT,0.08 kcal/mol
12,TGCTACACGTGGAGTG,-0.02 kcal/mol
13,ATTAACACGTGGCGGG,-0.23 kcal/mol
14,CGGGACACGTGTTTCG,0.17 kcal/mol
15,GTGAACACGTGGCGGT,0.02 kcal/mol
16,ATTATCACGTGGTGTT,0.06 kcal/mol
17,TTGTCCACGTGATGCG,0.31 kcal/mol
18,AATTTCACGTGTTAAG,0.27 kcal/mol
19,TGGTTCACGTGATAAT,0.23 kcal/mol
20,ATATGCACGTGGTTAG,-0.13 kcal/mol
21,GGGGGCACGTGAATAT,0.26 kcal/mol
22,TTATCCACGTGTATGG,0.07 kcal/mol
23,GTTGACACGTGTTACG,0.24 kcal/mol
24,GTATACACGTGGAGCG,0.19 kcal/mol
25,TGGCGCACGTGAGTTT,0.15 kcal/mol

row,Sequence,relative binding free energy
1,TCGTGCACGTGCGTGG,-0.1 kcal/mol
2,GGGTTCACGTGACGAT,0.5 kcal/mol
3,GGTTTCACGTGGATGC,0.21 kcal/mol
4,TTGTGCACGTGCTCAG,-0.04 kcal/mol
5,AGATGCACGTGTATAG,0.05 kcal/mol
6,ATTGCCACGTGTTGGA,-0.06 kcal/mol
7,GTATGCACGTGTTGGC,0.01 kcal/mol
8,GGTTTCACGTGGCTGC,0.2 kcal/mol
9,ATAAGCACGTGTTGTG,-0.1 kcal/mol
10,TGATGCACGTGTTAGC,0.04 kcal/mol
11,TATATCACGTGGATAT,0.15 kcal/mol
12,ACGTTCACGTGTGTTA,0.3 kcal/mol
13,GAATGCACGTGGTGTT,0.02 kcal/mol
14,AAGTTCACGTGAATAG,0.39 kcal/mol
15,GTTTGCACGTGCGGCG,0.02 kcal/mol
16,AGTTACACGTGTTAAG,0.06 kcal/mol
17,ATATTCACGTGGGCTC,0.25 kcal/mol
18,TGTCTCACGTGTGATG,0.3 kcal/mol
19,GGGGGCACGTGTGAAT,0.04 kcal/mol
20,GGGAACACGTGGTATA,-0.06 kcal/mol
21,GAGTTCACGTGTGGGG,0.43 kcal/mol
22,CTTGGCACGTGGATGC,-0.09 kcal/mol
23,TGTGTCACGTGTTCGT,0.05 kcal/mol
24,TTTAGCACGTGGACGT,-0.15 kcal/mol
25,GGGACCACGTGGAGGT,-0.06 kcal/mol

row,Sequence,relative binding free energy
1,GTTTTCACGTGGAGAG,0.38 kcal/mol
2,GGGCTCACGTGTGCAT,0.34 kcal/mol
3,TGGTGCACGTGGTAGA,-0.03 kcal/mol
4,TCAGGCACGTGTAGGA,-0.1 kcal/mol
5,GGGGTCACGTGAATTA,0.34 kcal/mol
6,CAGGTCACGTGAGGGG,0.3 kcal/mol
7,ATTGTCACGTGCTGTT,0.03 kcal/mol
8,TTAAGCACGTGTGGGT,-0.03 kcal/mol
9,TTAGGCACGTGGGGAC,-0.18 kcal/mol
10,GTCAGCACGTGTGGAA,0.08 kcal/mol
11,TTGATCACGTGAGAGT,0.31 kcal/mol
12,ATGTTCACGTGACGGA,0.25 kcal/mol
13,TATTGCACGTGCGATG,0.16 kcal/mol
14,GGCTTCACGTGGAAGT,0.33 kcal/mol
15,CTGGTCACGTGTAGGG,0.22 kcal/mol
16,TAGTGCACGTGGTAAT,0 kcal/mol
17,AGGTGCACGTGTCTGT,-0.07 kcal/mol
18,AGGCGCACGTGCGGGA,-0.08 kcal/mol
19,AGAGGCACGTGGTGCA,-0.17 kcal/mol
20,TGTCCCACGTGGTGTG,-0.21 kcal/mol
21,ATATGCACGTGTAGTT,-0.04 kcal/mol
22,GCGTGCACGTGCGCGG,-0.13 kcal/mol
23,TGTTTCACGTGCTCTG,0.07 kcal/mol
24,ATTGCCACGTGTATGT,-0.11 kcal/mol
25,TTTGCCACGTGAGGGT,0.21 kcal/mol

row,Sequence,relative binding free energy
1,GTGTGCACGTGACCGG,0 kcal/mol
2,AGGTGCACGTGCGAGT,0.07 kcal/mol
3,ATAGGCACGTGTATGA,-0.06 kcal/mol
4,AGGGTCACGTGTGAGG,0.19 kcal/mol
5,GTGTGCACGTGACGTT,0.15 kcal/mol
6,AGTAACACGTGGCAGG,-0.08 kcal/mol
7,AACTGCACGTGCGTGG,-0.04 kcal/mol
8,TTTCTCACGTGTGTCT,0.15 kcal/mol
9,GTTGACACGTGAGCGG,0.26 kcal/mol
10,CGATGCACGTGCTGGA,0.08 kcal/mol
11,GTTGTCACGTGTGTCA,0.12 kcal/mol
12,GGGAGCACGTGCGGGG,-0.12 kcal/mol
13,GTTAACACGTGTTTTC,0.12 kcal/mol
14,GATAGCACGTGGGCCG,-0.07 kcal/mol
15,ATCAGCACGTGGTTTG,-0.19 kcal/mol
16,TGGGCCACGTGTTCGG,-0.09 kcal/mol
17,TGTTGCACGTGCTAGG,0.02 kcal/mol
18,ATTTTCACGTGGGTTA,0.15 kcal/mol
19,GTCGCCACGTGGGGAG,0.06 kcal/mol
20,GGTTGCACGTGGAGTG,0.15 kcal/mol
21,AGTGTCACGTGAATGC,0.1 kcal/mol
22,GGGGGCACGTGATGGC,0.05 kcal/mol
23,CTGGTCACGTGGGTTG,-0.04 kcal/mol
24,GTAGTCACGTGCAGGG,0.05 kcal/mol
25,AATTGCACGTGATAGG,0.01 kcal/mol

row,Sequence,relative binding free energy
1,TGTCGCACGTGGTTCG,-0.07 kcal/mol
2,TTGTTCACGTGTAGTG,0.33 kcal/mol
3,TGGTGCACGTGCCGTT,-0.07 kcal/mol
4,TGCGGCACGTGGCCGT,-0.23 kcal/mol
5,AATAGCACGTGCTTGT,-0.19 kcal/mol
6,TTGGGCACGTGAGGTG,0.17 kcal/mol
7,GTTTCCACGTGAGTTA,0.26 kcal/mol
8,GTCATCACGTGTAGTT,0.4 kcal/mol
9,ATGCTCACGTGGGGTC,0.15 kcal/mol
10,GGGAACACGTGGTTTA,0.04 kcal/mol
11,TTAAGCACGTGTTCGT,-0.22 kcal/mol
12,GTTCTCACGTGTGTGG,0.23 kcal/mol
13,GTACTCACGTGGCGGG,0.18 kcal/mol
14,ACCGGCACGTGGGGAG,-0.1 kcal/mol
15,TGGAGCACGTGATTAG,0.17 kcal/mol
16,TCGCGCACGTGTGGTG,-0.12 kcal/mol
17,ATTATCACGTGATAAT,0.15 kcal/mol
18,CTGGTCACGTGTGCAT,0.06 kcal/mol
19,GTAGACACGTGCGTGG,-0.13 kcal/mol
20,TTGTACACGTGATTCG,0.08 kcal/mol
21,TGGGTCACGTGCGCAT,-0.07 kcal/mol
